From the supplement of paper PMC7826260
The other results are listed elsewhere or left out. The data describe in vitro nicking of single-stranded DNA by Rep domains (1 h at 37 °C, 3 µM enzyme); the outer parts of the 90-letter strands are left off. The score is log2 (uncut reads / reads without enzyme); strong cutting gives strongly negative numbers. There is no active / inactive call. The scaling is to total reads; values above 0 arise when much of the pool is cut.

Assays:
Test in all cases: uncleaved DNA left, log2 of reads against the no-enzyme library (log2 ratio); higher = less cleavage (more negative = more Rep cleavage of the k-mer); sequences stand for … in CTCGTCCG…ACCGGAGA
[1] = test system: T1, Rep nickase domain of Muscovy duck circovirus
T1 sequence (Rep 1-111, printed without the tag): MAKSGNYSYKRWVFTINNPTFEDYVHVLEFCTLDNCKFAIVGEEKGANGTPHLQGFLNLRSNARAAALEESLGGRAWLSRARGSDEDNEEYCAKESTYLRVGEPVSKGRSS
Description: (§1)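 A pool of 90-nt single-stranded DNAs with seven random bases just before the constant AC of the nick site (name = the seven bases) was cut by 3 µM recombinant His6-SUMO-tagged Rep nickase domain (300 nM DNA, 50 mM HEPES pH 8.0, 50 mM NaCl, 1 mM MnCl2, 1 h, 37 °C, three replicates). Uncut DNA was amplified and sequenced.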

[2] = test system: T2, Rep nickase domain of banana bunchy top virus
T2 sequence (Rep 1-94, printed without the tag): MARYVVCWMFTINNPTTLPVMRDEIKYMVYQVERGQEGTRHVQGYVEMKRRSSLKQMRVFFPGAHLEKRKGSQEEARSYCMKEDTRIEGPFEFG
Description: as §1

[3] = test system: T3, Rep nickase domain of cabbage leaf curl virus
T3 sequence (Rep 1-116, printed without the tag): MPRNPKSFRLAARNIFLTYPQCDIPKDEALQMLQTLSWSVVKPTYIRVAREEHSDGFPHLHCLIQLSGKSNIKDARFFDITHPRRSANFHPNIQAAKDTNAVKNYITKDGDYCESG
Description: as §1

[4] = test system: T4, Rep nickase domain of chickpea chlorotic dwarf virus
T4 sequence (Rep 1-124, printed without the tag): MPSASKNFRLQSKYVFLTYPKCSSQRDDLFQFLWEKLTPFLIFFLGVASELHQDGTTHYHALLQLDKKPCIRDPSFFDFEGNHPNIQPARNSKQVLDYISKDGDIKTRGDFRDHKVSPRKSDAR
Description: as §1

[5] = test system: T5, Rep nickase domain of faba bean necrotic yellows virus
T5 sequence (Rep 1-98, printed without the tag): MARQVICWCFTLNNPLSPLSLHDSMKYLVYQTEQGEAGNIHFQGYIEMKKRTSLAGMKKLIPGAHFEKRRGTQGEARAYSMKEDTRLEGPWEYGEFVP
Description: as §1

[6] = test system: T6, Rep nickase domain of maize striate mosaic virus
T6 sequence (Rep 1-117, printed without the tag): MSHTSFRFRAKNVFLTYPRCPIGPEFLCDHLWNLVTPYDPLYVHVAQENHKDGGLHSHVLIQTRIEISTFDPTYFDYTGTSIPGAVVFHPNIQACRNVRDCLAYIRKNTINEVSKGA
Description: as §1

[7] = test system: T7, Rep nickase domain of porcine circovirus 2
T7 sequence (Rep 2-116, printed without the tag): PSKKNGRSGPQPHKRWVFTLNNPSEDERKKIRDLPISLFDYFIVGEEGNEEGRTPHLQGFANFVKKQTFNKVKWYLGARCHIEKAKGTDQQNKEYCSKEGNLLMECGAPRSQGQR
Description: as §1

[8] = test system: T8, Rep nickase domain of tomato yellow leaf curl virus
T8 sequence (Rep 1-136, printed without the tag): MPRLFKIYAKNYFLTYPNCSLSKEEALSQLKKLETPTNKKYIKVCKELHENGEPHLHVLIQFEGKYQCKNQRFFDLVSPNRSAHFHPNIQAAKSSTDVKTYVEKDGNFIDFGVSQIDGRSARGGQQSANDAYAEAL
Description: as §1

[9] = test system: T9, Rep nickase domain of wheat dwarf virus
T9 sequence (Rep 1-137, printed without the tag): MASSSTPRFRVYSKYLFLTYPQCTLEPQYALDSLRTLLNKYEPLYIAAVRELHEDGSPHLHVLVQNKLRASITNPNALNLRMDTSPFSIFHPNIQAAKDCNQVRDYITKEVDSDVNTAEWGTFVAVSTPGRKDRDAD
Description: as §1

Row | Sequence | uncleaved DNA left (log2) [1] | uncleaved DNA left (log2) [2] | uncleaved DNA left (log2) [3] | uncleaved DNA left (log2) [4] | uncleaved DNA left (log2) [5] | uncleaved DNA left (log2) [6] | uncleaved DNA left (log2) [7] | uncleaved DNA left (log2) [8] | uncleaved DNA left (log2) [9]
1 | AATATAG | -0.0285 | -0.0826 | -0.857 | -0.456 | -0.00129 | -1.14 | 0.154 | 0.0302 | -0.0194
2 | CTAGCCT | -0.0754 | -0.0963 | -0.195 | -1.99 | 0.00725 | -0.758 | -0.222 | -0.0904 | -0.174
3 | GGCCTAA | -0.0111 | 0.0408 | 0.415 | 1.14 | -0.0827 | 1.52 | 0.191 | 0.199 | 0.00623
4 | TGGGACA | 0.19 | 0.126 | 0.986 | 2.19 | 0.0701 | 2.37 | 0.246 | 0.0045 | 0.196
5 | TGTGGTA | 0.184 | 0.00746 | 0.282 | 0.611 | 0.0801 | 1.36 | 0.0222 | 0.0284 | 0.12
6 | ACCTATC | 0.0188 | -0.141 | -0.211 | -0.389 | -0.0323 | -0.994 | -0.0724 | -0.0441 | -0.0136
7 | CTAGCTC | -0.0334 | -0.0205 | -0.0199 | -0.282 | -0.065 | -0.474 | -0.0484 | -0.00374 | -0.0483
8 | CAGAAGA | -0.0299 | -0.12 | -0.284 | -0.517 | 0.0386 | -1.09 | -0.055 | 0.0251 | -0.0695
9 | CCACGTC | -0.0395 | -0.0952 | -0.0312 | -0.319 | -0.0737 | -0.855 | -0.0716 | -0.0281 | -0.155
10 | AAAATGG | 0.0844 | 0.0666 | -0.192 | -0.159 | 0.0481 | -0.945 | 0.16 | 0.0671 | 0.073
11 | AAGCCTT | -0.105 | -0.148 | -0.0306 | -1.62 | -0.125 | 0.524 | -3.3 | -0.172 | -0.0773
12 | ATTTAAC | 0.0573 | -0.0473 | -0.464 | -1.75 | -0.05 | -0.976 | 0.0795 | -0.0312 | -0.124
13 | ACGGTCC | 0.0422 | 0.0654 | 0.0623 | -0.0257 | -0.0965 | -0.0315 | -0.231 | -0.035 | 0.00942
14 | TGGAGAG | 0.0777 | 0.0628 | 0.133 | 0.584 | 0.081 | -0.0365 | 0.154 | 0.0929 | 0.0336
15 | CTGCGAG | -0.00271 | -0.112 | -0.524 | -0.213 | 0.0668 | -1.15 | 0.194 | -0.0976 | -0.15
16 | AAGAGGA | 0.0902 | -0.027 | 0.222 | 0.746 | 0.0806 | 0.346 | 0.0278 | -0.0283 | -0.029
17 | TTCTCTC | -0.0991 | -0.135 | 0.106 | 0.0242 | 0.0445 | -0.0745 | -0.146 | -0.0825 | -0.113
18 | CGTTACA | 0.0997 | 0.0685 | -0.0147 | -1.55 | 0.0119 | -0.122 | -0.00468 | 0.129 | 0.0477
19 | GGCATGA | -0.0408 | 0.0627 | 0.589 | 1.48 | 0.0653 | 1.8 | 0.0683 | 0.0316 | 0.0481
20 | GGGACTC | -0.0964 | 0.000357 | 0.837 | 2.02 | -0.0809 | 2.23 | 0.0572 | -0.161 | 0.0401
21 | TTCATTC | 0.00158 | 0.0155 | -0.0841 | -0.29 | -0.0655 | -0.991 | 0.0153 | -0.0269 | -0.0999
22 | GTCCTGA | 0.0242 | 0.0986 | 0.31 | 0.83 | -0.16 | 1.74 | -0.0401 | 0.0519 | 0.0915
23 | GGGACAA | 0.0846 | 0.16 | 0.987 | 2.24 | -0.0197 | 2.39 | 0.223 | -0.161 | 0.235
24 | GCCGCGC | 0.00378 | -0.0812 | -0.496 | -0.152 | 0.031 | -0.543 | 0.0235 | -0.14 | -0.272
25 | ATGGCCG | -0.0823 | -0.0833 | -0.777 | -0.347 | -0.0453 | -0.988 | 0.125 | 0.00127 | -0.122
26 | GAGCGTC | 0.0816 | 0.0929 | 0.0539 | 0.348 | 0.0405 | 0.581 | -0.048 | -0.0171 | 0.08
27 | CCCGCAT | -0.172 | -0.202 | -0.0399 | -0.478 | -0.104 | -0.589 | -0.226 | -0.214 | -0.156
28 | GGACCGT | -0.0323 | 0.0814 | 0.645 | 1.55 | -0.091 | 1.89 | 0.118 | 0.0128 | 0.1
29 | GGAAACC | 0.0513 | 0.135 | 0.552 | 1.2 | 0.0896 | 1.7 | 0.143 | 0.0524 | 0.141
30 | CCAATGT | 0.226 | -0.0163 | -0.0804 | -0.473 | 0.0662 | -0.847 | 0.117 | 0.0694 | -0.15
